2 molecules from publication PMC6325239 (Nature Communications, 2019) can be followed below.

Test [1] deals with T1, co-expressed Munc18-1/Syx1 (residues 1–261) complex (rat, UniProt P61765; P32851).
T1 construct: Munc18-1, rat; syntaxin-1 (Syx1), rat, residues 1-261; also called Munc18-1/Syx1 complex; source: E. coli BL21 DE3, co-expressed from pETDuet-1, purified
Description: pull-down; 2 µM GST-Syb2 or mutants and 3 µM Munc18-1/Syx1 (1–261) complex, with 3 µM MUN, glutathione Sepharose 4B, 4 °C, 3 h; immunoblot for Munc18-1. The following applies: both partners purified. Background: Immunoblotting shows a protein as a band on a membrane.

Test [2] concerns the target T2, Syx1 (residues 1–261), co-expressed with Munc18-1 (rat, UniProt P32851).
T2 construct: syntaxin-1 (Syx1), rat, residues 1-261; also called syntaxin-1; source: E. coli BL21 DE3, co-expressed with Munc18-1 from pETDuet-1, purified
Description: native gel or EMSA; native PAGE with immunoblotting: 2 µM Munc18-1/Syx1 (1–261) complex with 10 µM SN25, 10 µM Syb2 (29–96) and 30 µM MUN, 30 °C, 1 h; SNARE complex forms only with all components. The following applies: both partners purified. (Mobility shift assays separate free from complexed probe on a gel.)

B1: GST-Syb2 ([…]) (domain or fragment)
chain: not shown
notes: synaptobrevin-2 (Syb2), rat, […]; also called isolated Syb2; source: E. coli BL21 DE3, pGEX-KG, purified (eluted with glutathione)
Take B1: the binding result in test [1] is listed as “binds”.

B2: Syb2 cytoplasmic domain ([…]) (domain or fragment)
chain: not shown
notes: synaptobrevin-2 (Syb2), rat, cytoplasmic domain […]; also called synaptobrevin-2; source: E. coli BL21 DE3, pGEX-KG, purified
Turning to B2, in test [2], the binding result is listed as “binds”.
